We go through 32 variants from the GPR68 mutational scans of Howard et al. (2025).

To fix the notation:
B1: GPR68, Q15743 (parent)
chain: MGNITADNSSMSCTIDHTIHQTLAPVVYVTVLVVGFPANCLSLYFGYLQIKARNELGVYLCNLTVADLFYICSLPFWLQYVLQHDNWSHGDLSCQVCGILLYENIYISVGFLCCISVDRYLAVAHPFRFHQFRTLKAAVGVSVVIWAKELLTSIYFLMHEEVIEDENQHRVCFEHYPIQAWQRAINYYRFLVGFLFPICLLLASYQGILRAVRRSHGTQKSRKDQIQRLVLSTVVIFLACFLPYHVLLLVRSVWEASCDFAKGVFNAYHFSLLLTSFNCVADPVLYCFVSETTHRDLARLRGACLAFLTCSRTGRAREAYPLGAPEASGKSGAQGEEPELLTKLHPAFQTPNSPGSGGFPTGRLA

Variants of B1 are the subject of data set [1]. In words: cAMP reporter score (Enrich2 score, wild type = 0); higher = more signal; HEK293T, FACS bins.
Data set [2] covers variants of B1. In words: surface expression score (Enrich2 score, wild type = 0); higher = more signal; HEK293T, FACS bins.

Scores with a large standard error are left out. The source holds two more conditions with little spread; they are left out. Names with del lack the residues named; names with ins carry added residues between the positions named. For some of these results: How much ogerin was present is not stated here.

For H245S, the cAMP reporter score is -0.436 in data set [1] (pH 5.5); 0.843 in data set [1] (pH 6); -1.33 in data set [1] (pH 6, modulator: ogerin); -1.27 in data set [1] (pH 6.5, modulator: ogerin). The surface expression score in data set [2] is -1.68.
For the variant H245P, the cAMP reporter score in data set [1] (pH 5.5) was -1.65; in data set [1] (pH 6), -0.932; in data set [1] (pH 6, modulator: ogerin) it was -1.4; in data set [1] (pH 6.5, modulator: ogerin), -0.501. Also, in data set [2], the surface expression score is -2.57.
Taken in the same sequence, the figures for H245Q were -0.809, -1.39, -1.57, -1.43 and -1.51.
Turning to H245R, the cAMP reporter score in data set [1] (pH 5.5) is -1.74; in data set [1] (pH 6), -1.03; in data set [1] (pH 6, modulator: ogerin), -0.899; in data set [1] (pH 6.5, modulator: ogerin), -0.786. Besides, the surface expression score in data set [2] was -2.14.
Turning to H245Y, the cAMP reporter score in data set [1] (pH 5.5) is -1.58; in data set [1] (pH 6), -1.53; in data set [1] (pH 6, modulator: ogerin), -1.72; in data set [1] (pH 6.5, modulator: ogerin) it was -0.601.
Regarding H245C, the cAMP reporter score in data set [1] (pH 5.5) was -1.67; in data set [1] (pH 6), -0.815; in data set [1] (pH 6, modulator: ogerin) it was -1.24; in data set [1] (pH 6.5, modulator: ogerin), -0.919. Moreover, the surface expression score in data set [2] was -2.74.
Taken in the same sequence, the figures for H245A were -0.303, -0.975, -1.38, -0.332 and -3.2.
For H245L, in that order: -1.26, -1.13, -2.6, -0.847 and -2.19.
For H245E, in that order: -0.971, -1.05, -2.77, -1.55 and -1.05.
On to I226_Q227del, for which the cAMP reporter score in data set [1] (pH 5.5) is -0.782; in data set [1] (pH 6), -1.35; in data set [1] (pH 6, modulator: ogerin), -1.02; in data set [1] (pH 6.5, modulator: ogerin), -1.08. Also, the surface expression score in data set [2] was 0.79.
Taken in the same sequence, the figures for Y244_V246del were -1.68, -0.783, -1.64, -1.33 and -2.51.
As to S232E, the cAMP reporter score in data set [1] (pH 5.5) is -1; in data set [1] (pH 6), -0.107; in data set [1] (pH 6.5, modulator: ogerin), -0.724. In addition, in data set [2], the surface expression score is -2.57.
In the case of S232R, the cAMP reporter score is -0.541 in data set [1] (pH 5.5); -0.437 in data set [1] (pH 6); -1.06 in data set [1] (pH 6, modulator: ogerin); -1.07 in data set [1] (pH 6.5, modulator: ogerin). Also, the surface expression score in data set [2] was -2.19.
Regarding S232T, the cAMP reporter score in data set [1] (pH 5.5) is 0.46; in data set [1] (pH 6) it was -0.745; in data set [1] (pH 6, modulator: ogerin), 0.769; in data set [1] (pH 6.5, modulator: ogerin), -0.462. For the same variant, in data set [2], the surface expression score turned out to be 1.27.
With S232L, the cAMP reporter score was 0.606 in data set [1] (pH 5.5); 1.71 in data set [1] (pH 6); -0.147 in data set [1] (pH 6, modulator: ogerin). In addition, the surface expression score in data set [2] was -0.384.
S232W: the cAMP reporter score in data set [1] (pH 5.5) came to 0.724; in data set [1] (pH 6, modulator: ogerin), 0.803; in data set [1] (pH 6.5, modulator: ogerin), 1.15. Further, the surface expression score in data set [2] is -0.028.
Regarding S232I, the cAMP reporter score in data set [1] (pH 5.5) was found to be 0.44; in data set [1] (pH 6), 2.05; in data set [1] (pH 6, modulator: ogerin), 0.577; in data set [1] (pH 6.5, modulator: ogerin) it was 0.588. For the same variant, the surface expression score in data set [2] is -0.362.
For S232Y, in that order: 0.748, 1.33, 0.449, 0.59 and -0.437.
For the variant S232D, the cAMP reporter score in data set [1] (pH 5.5) was -0.374; in data set [1] (pH 6, modulator: ogerin), -2.23; in data set [1] (pH 6.5, modulator: ogerin) it was -1.41. The surface expression score in data set [2] was -2.28.
Regarding S232A, the cAMP reporter score in data set [1] (pH 5.5) is -0.017; in data set [1] (pH 6) it was -1.19; in data set [1] (pH 6, modulator: ogerin), -0.05; in data set [1] (pH 6.5, modulator: ogerin) it was -0.236. The surface expression score in data set [2] came to 0.377.
For S232Q, in data set [1] (pH 5.5), the cAMP reporter score is -0.482. Also, in data set [2], the surface expression score was -0.409.
Consider S232V, for which the cAMP reporter score amounted to 0.281 in data set [1] (pH 5.5); 0.438 in data set [1] (pH 6, modulator: ogerin); 0.639 in data set [1] (pH 6.5, modulator: ogerin). The surface expression score in data set [2] turned out to be 1.01.
As for S232M, the cAMP reporter score in data set [1] (pH 5.5) was found to be 1.35; in data set [1] (pH 6) it was 1.46; in data set [1] (pH 6, modulator: ogerin), 0.687; in data set [1] (pH 6.5, modulator: ogerin) it was 0.659. Further, in data set [2], the surface expression score is 0.594.
As to S232N, the cAMP reporter score in data set [1] (pH 5.5) is -0.343; in data set [1] (pH 6), -1.35; in data set [1] (pH 6, modulator: ogerin), -0.601; in data set [1] (pH 6.5, modulator: ogerin) it was -0.149. Moreover, the surface expression score in data set [2] is -1.33.
Take S232C: the cAMP reporter score in data set [1] (pH 5.5) was -0.492; in data set [1] (pH 6), -0.347; in data set [1] (pH 6, modulator: ogerin) it was -0.738; in data set [1] (pH 6.5, modulator: ogerin), -0.357. Also, the surface expression score in data set [2] was -0.712.
For S232H, in that order: 0.666, 2.01, 0.593, -1.99 and -0.825.
Consider S232F, for which the cAMP reporter score in data set [1] (pH 5.5) came to 0.713; in data set [1] (pH 6), 1.57; in data set [1] (pH 6, modulator: ogerin), 1.01; in data set [1] (pH 6.5, modulator: ogerin), 0.741. In addition, the surface expression score in data set [2] is -0.176.
For S232G, in that order: 0.171, 0.04, 0.334, -0.145 and 0.174.
S232P: the cAMP reporter score in data set [1] (pH 5.5) is -1.72; in data set [1] (pH 6) it was 1.3; in data set [1] (pH 6, modulator: ogerin) it was -1.09; in data set [1] (pH 6.5, modulator: ogerin), -0.188. Besides, the surface expression score in data set [2] was -0.904.
For S232K, the cAMP reporter score in data set [1] (pH 5.5) came out at 0.991; in data set [1] (pH 6) it was 1.97; in data set [1] (pH 6, modulator: ogerin), 0.215.
For L231_S232del, the cAMP reporter score in data set [1] (pH 5.5) is -1.33; in data set [1] (pH 6), -1.65; in data set [1] (pH 6.5, modulator: ogerin), -0.448. Moreover, in data set [2], the surface expression score was -3.78.
Turning to V235_F237del, the cAMP reporter score in data set [1] (pH 5.5) was -1.07; in data set [1] (pH 6), -0.727; in data set [1] (pH 6, modulator: ogerin), -3.11; in data set [1] (pH 6.5, modulator: ogerin) it was -1.47. In addition, in data set [2], the surface expression score was -1.36.
